Laboratory results from publication PMC4336329 (PLoS ONE, 2015).
The whole screen tested about 310,000 compounds, of which about 14,000 (4.5%) showed an effect of 50% or more. Effects have a minus sign here. The list shows a part of the results.

target: human ether-à-go-go-related gene (hERG) potassium channel (human, UniProt Q12809); assay: primary screen, population patch clamp on CHO cells stably expressing hERG
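Also: peak tail current of the secondary pulse compared with the same well before compound.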

Chain of human ether-à-go-go-related gene (hERG) potassium channel (Q12809 whole entry, looked up): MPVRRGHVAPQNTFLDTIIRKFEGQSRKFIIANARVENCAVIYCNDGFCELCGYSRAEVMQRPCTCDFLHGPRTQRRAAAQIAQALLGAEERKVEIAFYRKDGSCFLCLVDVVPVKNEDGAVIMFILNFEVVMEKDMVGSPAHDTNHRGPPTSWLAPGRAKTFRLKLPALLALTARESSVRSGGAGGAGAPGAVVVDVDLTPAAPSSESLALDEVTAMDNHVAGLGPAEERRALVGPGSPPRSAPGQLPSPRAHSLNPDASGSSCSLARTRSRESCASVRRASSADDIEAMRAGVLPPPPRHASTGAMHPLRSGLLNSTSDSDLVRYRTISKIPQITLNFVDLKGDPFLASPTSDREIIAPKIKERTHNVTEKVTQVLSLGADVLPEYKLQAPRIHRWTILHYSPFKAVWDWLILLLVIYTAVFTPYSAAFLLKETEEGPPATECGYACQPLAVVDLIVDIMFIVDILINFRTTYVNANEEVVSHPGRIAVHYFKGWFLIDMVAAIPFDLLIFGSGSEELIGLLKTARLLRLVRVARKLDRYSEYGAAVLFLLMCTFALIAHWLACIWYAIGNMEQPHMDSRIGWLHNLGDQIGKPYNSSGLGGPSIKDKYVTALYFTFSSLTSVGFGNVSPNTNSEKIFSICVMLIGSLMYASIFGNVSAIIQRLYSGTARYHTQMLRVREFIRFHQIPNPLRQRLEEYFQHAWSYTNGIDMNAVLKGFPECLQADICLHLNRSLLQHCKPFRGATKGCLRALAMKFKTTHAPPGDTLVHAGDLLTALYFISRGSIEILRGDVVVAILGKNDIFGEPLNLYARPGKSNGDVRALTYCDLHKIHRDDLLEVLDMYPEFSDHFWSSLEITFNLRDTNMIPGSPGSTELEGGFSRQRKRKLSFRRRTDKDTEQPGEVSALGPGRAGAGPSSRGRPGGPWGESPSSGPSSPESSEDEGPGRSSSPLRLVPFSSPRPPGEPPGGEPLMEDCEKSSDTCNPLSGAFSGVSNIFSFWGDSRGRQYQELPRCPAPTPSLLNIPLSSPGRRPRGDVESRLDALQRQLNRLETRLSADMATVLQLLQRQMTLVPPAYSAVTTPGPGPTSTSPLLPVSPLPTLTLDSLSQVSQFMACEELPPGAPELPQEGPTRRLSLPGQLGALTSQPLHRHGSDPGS

SMILES	hERG current change (%, negative = inhibition) at 10uM [%]
O=C(CN1CCCC1)NC(c1ccccc1)c1ccccc1.O=C(O)C(=O)O	-34.7
COc1ccc(N(C(=O)COc2ccc(C)cc2)S(=O)(=O)c2ccc(C)cc2)cc1	-9.87
OCC[C@@H]1C[C@H](O)[C@@H](O)[C@@]2(CCCc3ccccc3O2)O1	16.2
COc1ccc(-n2c(SCC(=O)Nc3nccs3)nc3c(c2=O)SCC3)cc1	8.32
CC(C)NC(=O)NNC(=O)c1cc(COc2cc(Cl)cc(Cl)c2)on1	2.67
O=[N+]([O-])c1ccc(CSc2nc3ccccc3o2)cc1	11
COC(=O)c1ccccc1NC(=O)c1ccco1	-6.46
Cc1cc(NS(=O)(=O)c2ccc(N)cc2)no1	12.4
Cc1cccc(-n2c(=O)[nH]c3c(C(N)=O)nc(C(C)C)nc32)c1	-11.9
CCC(=O)NC(Cc1ccccc1)c1ccc2c(c1)OCCCO2 (stereo not shown)	7.51
Cl.OC(CNC1CCCC1)COc1ccc(Cl)cc1 (stereo not shown)	-9.8
O=C(O)c1ccc(NC(=S)NC(=O)c2cccc(COc3ccccc3)c2)cc1	25.6
CCOC(=O)c1cn(CC(=O)Nc2cccc(Cl)c2)nn1	11.6
O=C(Nc1cnc2ccccc2c1)c1cccc(-n2cnnn2)c1	-16.2
O=C(NC(=S)Nc1ccc(CN2CCOCC2)cc1)c1ccc([N+](=O)[O-])cc1	-13
O=S(=O)(Nc1ccc(S(=O)(=O)N2CCCC2)cc1)c1ccc(F)cc1	-9.96
CC1CC(C)CN(C(=O)CSc2nnc(-c3ccc(Cl)cc3)o2)C1 (stereo not shown)	4.29
CC(C)N1CCC(=NNC(=O)c2cccs2)CC1	25.6
Cc1ccc(SCC(=O)N(C)C2CCS(=O)(=O)C2)cc1 (stereo not shown)	9.08
Oc1ccc2ccccc2c1/C=N/c1nccs1	18.8
CC(Sc1nnc(CNc2cccc3ccccc23)n1-c1ccccc1)C(=O)N/N=C/c1ccco1 (stereo not shown)	-10.2
Cc1ccc(C)c(N2CCN(S(=O)(=O)c3c(C)noc3/C=C/N(C)C)CC2)c1	2.28
CCCCSc1nnc(-c2ccc(NC(=O)CC)cc2)n1C	1.51
CC1=C(C(=O)Nc2ccccc2C)C(c2cccnc2)n2nc(CCCO)nc2N1 (stereo not shown)	6.31
Cc1cc(C=O)c(C)n1CC1CCCO1 (stereo not shown)	14.7
